Test results: the RNAGym collection of RNA variant scans (doi:10.7554/elife.90254)
The source gives no read counts; variants with many changes may rest on few reads.

B1: OR4K15 (parent)
chain: GUUAACGGUCAUAGGCCAUGGAAACUAGGAGCACCAUUUCGCUGCCAGUGAAGAAAUGAACAAAGAAAAUCUGGGCCAGGCAGGCAUCAAAAGAAAUAGUCUUGCGCUCAACCAGAAAGUCUGUAAUCAUUUUAAGGGUA

Variants of: B1
Experiment: self-cleavage, relative activity (ratio to wild type); higher = more cleavage; in vitro, sequencing; the parent is a self-cleaving ribozyme
In the case of GUUAACGGUCAUAGGCCAUGGAAACUAGGAGCACCAUUUCGCUGCCAGUGAAGGAAUGAACAAAGAAAAUCUGGGCCAGGCAGGUACCAAAAGAAAUAGUCUUGCGCUCAACCAGAAAGUCUGUAAUCAUUUUAAGGGUA [A54G C85U U87C], the self-cleavage is reported as 0.88. For GUUAACGGUCAUAGGCCAUGGAAACUAGGAGCACCAUUUCGCUGCCAGUGAAGGAAUUAACAAAGAAAAUCUGGGCCAGGCAGGCAUCAAAAGAAAUAGUAUUGCGCUCAACCAGAGAGUCUGUAAUCAUUUUAAGGGUA [A54G G58U C101A A117G], the self-cleavage was 0.05. In the case of GUUAACGGUCAUAGGCCAUGGAAACUAGGAGCACCAUUUCGCUGCCAGUGAAGGAAAGAACAAAGGAAAUCUGGGCCAGGCAGGCAUAAAAAGAAAUAGUCUUGCGCUCAACCAGAAAGUCUGUAAUCAUUUUAAGGGUA [A54G U57A A66G C88A], the self-cleavage is reported as 1.25. With GUUAACGGUCAUAGGCCAUGGAAACUAGGAGCACCAUUUCGCUGCCAGUGAAGGAAAGAACAAAGAAAAUCUGGGCCAGGCAGGCAUCAAAAGAAAUAGUCUUGCGCUCAACCAGAAAGUCUGUAAUCAUUUUAUGGGUA [A54G U57A A135U] the self-cleavage was 2.05. GUUAACGGUCAUAGGCCAUGGAAACUAGGAGCACCAUUUCGCUGCCAGUGAAGGAAAGAACAAAGAAAAUCUGGGCCAGGCAGGCAUCAAAAGAAAUAGUCUUGCGCUCAACCAGAAAGUCUGUAAUCACUUUAAGGGUA [A54G U57A U130C] showed a self-cleavage of 1.12. Work on GUUAACGGUCAUAGGCCAUGGAAACUAGGAGCACCAUUUCGCUGCCAGUGAAGGAAGGAACAAAGAAAAUCUGGGCCAGGCAGGCAUCUAAAGAAAUAGUCUUGCGCUCAACCAGAUAGUCUGUAAUCAUUUUAAGGGUA [A54G U57G A89U A117U] yielded a self-cleavage of 0.65. Variant GUUAACGGUCAUAGGCCAUGGAAACUAGGAGCACCAUUUCGCUGCCAGUGAAGGAAUGAACAAAGAAAACCUGGGCCAGGCAGGCAUCAAAAGAAAUGGUCUUGCGCCCAACCAGAAAGUCUGUAAUCAUUUUAAGGGUA [A54G U70C A98G U108C] has a self-cleavage of 0.01. Work on GUUAACGGUCAUAGGCCAUGGAAACUAGGAGCACCAUUUCGCUGCCAGUGAAGGAAUGAACAAAGAAAAUCAGGGCCAGGCGGGCAUCAAAAGAAAUAGUCUUGCGCUCAACCAGAAAGUCUGUGAUCAUUUUAAGGGUA [A54G U72A A82G A125G] yielded a self-cleavage of 0.05. GUUAACGGUCAUAGGCCAUGGAAACUAGGAGCACCAUUUCGCUGCCAGUGAAGGAAUGAACAAAGAAAAUCAGGGCCAGGCAGGCAUCAAGAGAAAUAGUCUUGCGCUCAACCAGAAAGUCUGUAAUCAUUUUAAGGGUA [A54G U72A A91G] gave a self-cleavage of 0.29. In the case of GUUAACGGUCAUAGGCCAUGGAAACUAGGAGCACCAUUUCGCUGCCAGUGAAGGAAUGAACAAAGAAAAUCCGGGCCAGGCAGGCAUCAAAAGAAAUAGUCUUGCGCUCAACCGGAAAGUCUGUAAUCAUCUUAAGGGUA [A54G U72C A114G U131C], the self-cleavage is reported as 1.88. GUUAACGGUCAUAGGCCAUGGAAACUAGGAGCACCAUUUCGCUGCCAGUGAAGGAAUGAACAAAGAAAAUCCGGGCCAGGCAAGCAUCAAAAGAAAUAGUCUUGCGCUCACCCAGAAAGUCUGUAAUCAUUUUAAGGGUA [A54G U72C G83A A111C] showed a self-cleavage of 0.01. With GUUAACGGUCAUAGGCCAUGGAAACUAGGAGCACCAUUUCGCUGCCAGUGAAGGAAUGAACAAAGAAAAUCUGGGCCAGGCAGGCAACAAAAGAAAUAGUCAUGCGCUCAACCAGAAAGUCUGUAAUCAUUUUAAGGGUA [A54G U87A U102A] the self-cleavage was 1.17. With GUUAACGGUCAUAGGCCAUGGAAACUAGGAGCACCAUUUCGCUGCCAGUGAAGGAAUGAACAAAGAAAAUCUGGGCCAGGCAGGCAUCAAAAGAAACAGUCUUGCGCUCAACCAGAAAGUCUGUAACCAUUUUAAGGGUA [A54G U97C U127C] the self-cleavage was 0.59. With GUUAACGGUCAUAGGCCAUGGAAACUAGGAGCACCAUUUCGCUGCCAGUGAAGGAAUGAACAAAGAAAAUCUGGGCCAGGCAGGCAUCAAAAGAAAUAGUCUCGCGCUCAACCAGAAAGUCUGUAAUCAUUUUAGGGGUA [A54G U103C A135G] the self-cleavage was 0.35. In the case of GUUAACGGUCAUAGGCCAUGGAAACUAGGAGCACCAUUUCGCUGCCAGUGAAGGAAUGAACAAAGAAAAUCUGGGCCAGGCAGGCAUCAAAAGAAAUAGUCUUGCGCCCAACCAGAGAGUCUGUAAUCAUUUUAAGGGUA [A54G U108C A117G], the self-cleavage is reported as 0. GUUAACGGUCAUAGGCCAUGGAAACUAGGAGCACCAUUUCGCUGCCAGUGAAGGAAUGAACAAAGAAAAUCUGGGCCAGGCAGGCAUCAAAAGAAAUAGUCUUGCGCCCAACCAGAAAGUCAGUAAUCAUUUUAAGGGUA [A54G U108C U122A] gave a self-cleavage of 0.03. In the case of GUUAACGGUCAUAGGCCAUGGAAACUAGGAGCACCAUUUCGCUGCCAGUGAAGGAAUGAACAAAGAAAAUCUGGGCCAGGCAGGCAUCAAAAGAAAUAGUCUUGCGCCCAACCAGAAAGUCUGUAACCGUCUUAAGGGUA [A54G U108C U127C A129G U131C], the self-cleavage is reported as 0. In the case of GUUAACGGUCAUAGGCCAUGGAAACUAGGAGCACCAUUUCGCUGCCAGUGAAGGAAUGAACAAAGAAAAUCUGGGCCAGGCAGGCAUCAAAAGAAAUAGUCUUGCGCUCAACCAGAAAGUCAGUAAUCAUCUUAAGGGUA [A54G U122A U131C], the self-cleavage is reported as 0.95. Variant GUUAACGGUCAUAGGCCAUGGAAACUAGGAGCACCAUUUCGCUGCCAGUGAAGGAAUGAACAAAGAAAAUCUGGGCCAGGCAGGCAUCAAAAGAAAUAGUCUUGCGCUCAACCAGAAAGUCUGUAAUCACUUUGAGGGUA [A54G U130C A134G] has a self-cleavage of 0.83. In the case of GUUAACGGUCAUAGGCCAUGGAAACUAGGAGCACCAUUUCGCUGCCAGUGAAGUAAUGAGCAAAGAAAAUCAGGGCCAGGCAGGCAUCAAAAGAAAUAGUCUUGCGCUCGACCAGAAAGUCUGUAAUCAUUCUAAGGGUA [A54U A60G U72A A110G U132C], the self-cleavage is reported as 0.02. For GUUAACGGUCAUAGGCCAUGGAAACUAGGAGCACCAUUUCGCUGCCAGUGAAGUAAUGAGCAAAGAAAAUCUGGGCCAGGCAGGCAUCAAAAGAAAUAGUCUUGCGCUCAACCAGAAAGUCUGUAAUCAUUUUAAGGGCA [A54U A60G U139C], the self-cleavage was 0.8.
